Test results from patent publication US20200347143A1 (GLENMARK PHARMACEUTICALS S A, published 2020).
Changes are numbered by the printed parent chain. Names may count otherwise. Values belong to the binder of their own block, whether it stands above or below them.

Legend:
[1] = target: T1, OX40-CRD-Avi-his (human); test: SPR, Fc-2H6 fragment captured by anti-human IgG Fc, OX40-CRD-Avi-his injected, 1:1 Langmuir
T1 construct: limits of the construct not described
T1 chain: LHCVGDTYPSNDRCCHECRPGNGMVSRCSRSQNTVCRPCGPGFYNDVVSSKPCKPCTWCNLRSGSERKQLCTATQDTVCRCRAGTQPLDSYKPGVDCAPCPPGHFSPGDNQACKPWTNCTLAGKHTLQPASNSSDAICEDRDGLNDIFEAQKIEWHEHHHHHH
Procedure: The antibody/protease mixture was incubated over night at 37° C. […] After each binding event, the surface was regenerated with 10 μl of MgCl2 (3M) buffer. Experimental data were processed using a 1:1 Langmuir model with local Rmax. The dissociation time was about 7 min.

[2] = target: T2, human OX40-Fc (human); test: SPR, dAb-Fc immobilised on CM5, OX40-Fc 200 nM injected
T2 construct: also called recombinant human OX40-Fc; human OX40 (HHHH)

[3] = target: T3, human OX40 on cells (human, UniProt P43489 29-277); test: cell-based or functional assay
T3 sequence (looked up): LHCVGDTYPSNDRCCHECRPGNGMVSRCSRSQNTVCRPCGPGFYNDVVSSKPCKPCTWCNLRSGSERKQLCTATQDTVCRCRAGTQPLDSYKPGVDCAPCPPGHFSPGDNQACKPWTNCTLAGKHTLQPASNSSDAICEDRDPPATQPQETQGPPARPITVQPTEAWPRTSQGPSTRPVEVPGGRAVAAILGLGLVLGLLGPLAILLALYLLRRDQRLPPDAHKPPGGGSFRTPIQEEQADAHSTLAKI

[4] = target: rat OX40-Fc (rat); test: SPR, dAb-Fc immobilised on CM5, OX40-Fc injected
[5] = target: T4, chiOX40R RRHH-Fc (human/rat chimera; human); test: SPR, chimera immobilised (3000 RU), fragment injected at 200 nM
T4 construct: also called chiOX40R-Fc RRHH
Procedure: (§1) A second injection was then performed using HBS-EP buffer for 3 min followed by 5 min of dissociation. Regeneration between the injections was done using glycine pH1.5 buffer for 1 min (FIG. 21 and table 23).

[6] = target: T5, chiOX40R HHRH-Fc (human/rat chimera; human); test: SPR, chiOX40R-Fc HHRH on the chip (Fc2-1), analyte 200 nM
T5 construct: also called chiOX40R-Fc HHRH; chiOX40R OX40 HHRH-Fc
Procedure: as §1

[7] = target: T6, recombinant human OX40-his protein (human, UniProt P43489 29-214); test: SPR (value of Table 12 repeated)
T6 construct: Secreted via the native signal peptide, which lies within residues 1-214; also called Human OX40R-His; histidine tagged human OX40 receptor extracellular domain
T6 sequence: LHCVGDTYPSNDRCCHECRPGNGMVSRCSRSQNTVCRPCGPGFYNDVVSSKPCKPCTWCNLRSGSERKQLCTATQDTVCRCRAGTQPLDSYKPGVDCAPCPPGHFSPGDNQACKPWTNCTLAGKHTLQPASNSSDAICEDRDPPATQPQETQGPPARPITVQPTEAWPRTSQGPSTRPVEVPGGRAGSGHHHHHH

[8] = target: T7, cynomolgus monkey OX40R-Fc (cynomolgus monkey); test: SPR (BIAcore T200), cynomolgus OX40R-Fc on CM5 chip, scFv-Fc injected, bivalent analyte model
T7 construct: also called recombinant Fc fused cynomolgus monkey OX40 receptor extracellular domain; cyno OX40-Fc

[9] = target: T6, recombinant human OX40-his protein; test: SPR (BIAcore T200), human OX40R-His on CM5 chip, scFv-Fc injected, bivalent analyte model
[10] = target: T6, recombinant human OX40-his protein; test: SPR, analyte at 200 nM over human OX40R on a CM5 chip, 25 C

B1: Fc-2H6 scFv fragment of Tetra-8 (Fc fusion)
chain: [sequence of human IgG1 Fc with changes omitted]GGGGTEVQLVESGGGLVQPGGSLRLSCAVSGYSITSDYAWNWIRQAPGKCLEWMGYISYSGSTAYNPSLKSRITISRDTSKNTFYLQMNSLRAEDTAVYYCARGPYNYLAYWGQGTLVTVSSGGGGSGGGGSGGGGSDIQLTQSPSSLSASVGDRVTITCRASESVDNYGISFMNWFQQKPGKAPKLLIYAASNQKSGVPSRFSGSGSGTDFTLTISSLQPEDFATYFCQQSKEVPLTFGCGTKVEIL
notes: also called Fc-2H6 fragment; 2H6 scFv (VH/M108L-VL/K107L-disulfide engineered) fused in C-terminus of Tetra-8
Kd [1]: 60 nM

B4: Hexa-hz1D10v1 (Fc fusion)
chain: EVQLLESGGGEVQPGGSLRLSCAASGFTFSDAFMYWVRQAPGKGLEWVSSISNRGLKTAYAESVKGRFTISRDNAKNTLYLQMSSLRAEDTAVYYCSRDVDGDFRGQGTLVTVKPGGSGGSEVQLLESGGGEVQPGGSLRLSCAASGFTFSDAFMYWVRQAPGKGLEWVSSISNRGLKTAYAESVKGRFTISRDNAKNTLYLQMSSLRAEDTAVYYCSRDVDGDFRGQGTLVTVKPGGSGGSEVQLLESGGGEVQPGGSLRLSCAASGFTFSDAFMYWVRQAPGKGLEWVSSISNRGLKTAYAESVKGRFTISRDNAKNTLYLQMSSLRAEDTAVYYCSRDVDGDFRGQGTLVTVKPGGGGTGGGGT[sequence of human IgG1 Fc with changes omitted]
% donor responder (>2), SEB assay, IL-2 release [3]: 0% | Mean, normalized IL-2 release, SEB assay [3]: 1.14

B5: humanized 2H6 scFv1-Fc (Fc fusion)
scFv-Fc: EVQLVESGGGLVQPGGSLRLSCAVSGYSITSDYAWNWIRQAPGKGLEWMGYISYSGSTAYNPSLKSRITISRDTSKNTFYLQMNSLRAEDTAVYYCARGPYNYLAYWGQGTMVTVSSGGGGSGGGGSGGGGSDIQLTQSPSSLSASVGDRVTITCRASESVDNYGISFMNWFQQKPGKAPKLLIYAASNQKSGVPSRFSGSGSGTDFTLTISSLQPEDFATYFCQQSKEVPLTFGQGTKVEIKGGGGT[sequence of human IgG1 Fc omitted]
notes: also called 2H6 scFv-Fc; 2H6 (N-ter)
Kd [7]: 27 nM | Kd [8]: 18 nM | koff [8]: 0.000586 s⁻¹ | kon [8]: 206000 M⁻¹ s⁻¹ | Kd [9]: 27 nM | koff [9]: 0.000741 s⁻¹ | kon [9]: 155000 M⁻¹ s⁻¹

B7: mouse chimeric 2H6 scFv-Fc (Fc fusion)
scFv-Fc: DVQLQESGPGLVKPSQSLSLTCTVTGYSITSDYAWNWIRQFPGNKLEWMGYISYSGSTAYNPSLKSRISITRDTSKNQFFLQLNSVTTEDTATYYCARGPYNYLAYWGQGTLVTVSSGGGGSGGGGSGGGGSDIVLTQSPASLAVSLGQRATISCRASESVDNYGISFMNWFQQKPGQPPKLLIYAASNQKSGVPARFSGSGSGTDFSLNIHPMEEDDTAMYFCQQSKEVPLTFGAGTKLEIKGGGGT[sequence of human IgG1 Fc omitted]
notes: also called parental mouse 2H6 scFv
Kd [8]: 39 nM | koff [8]: 0.000319 s⁻¹ | kon [8]: 579000 M⁻¹ s⁻¹ | Kd [9]: 62 nM | koff [9]: 0.022 s⁻¹ | kon [9]: 680000 M⁻¹ s⁻¹

B8: Hexa-hzG3V9 (Fc fusion)
chain: EVQLLESGGGEVQPGGSLRLSCAASGFTFSDAFMYWVRQAPGKEREWVSSISNRGLKTAYAESVKGRFTISRDNAKNTLYLQMSSLRAEDTAVYYCVEGDWNLGPRGQGTLVTVKPGGSGGSEVQLLESGGGEVQPGGSLRLSCAASGFTFSDAFMYWVRQAPGKEREWVSSISNRGLKTAYAESVKGRFTISRDNAKNTLYLQMSSLRAEDTAVYYCVEGDWNLGPRGQGTLVTVKPGGSGGSEVQLLESGGGEVQPGGSLRLSCAASGFTFSDAFMYWVRQAPGKEREWVSSISNRGLKTAYAESVKGRFTISRDNAKNTLYLQMSSLRAEDTAVYYCVEGDWNLGPRGQGTLVTVKPGGGGTGGGGT[sequence of human IgG1 Fc with changes omitted]
% donor responder (>2), SEB assay, IL-2 release [3]: 33% | Mean, normalized IL-2 release, SEB assay [3]: 1.82

B9: Tetra-hzG3V9 (Fc fusion)
chain: EVQLLESGGGEVQPGGSLRLSCAASGFTFSDAFMYWVRQAPGKEREWVSSISNRGLKTAYAESVKGRFTISRDNAKNTLYLQMSSLRAEDTAVYYCVEGDWNLGPRGQGTLVTVKPGGSGGSEVQLLESGGGEVQPGGSLRLSCAASGFTFSDAFMYWVRQAPGKEREWVSSISNRGLKTAYAESVKGRFTISRDNAKNTLYLQMSSLRAEDTAVYYCVEGDWNLGPRGQGTLVTVKPGGGGT[sequence of human IgG1 Fc with changes omitted]
notes: dAb-Fc (IgG1 Fc LALA) fusion; also called hzG3V9 dAb
binding result [2]: binds | % donor responder (>2), SEB assay, IL-2 release [3]: 50% | Mean, normalized IL-2 release, SEB assay [3]: 1.93 | binding result [4]: no binding (tested: 200 nM)

B10: 11D4_hzG3v9 (bispecific antibody)
heavy: EVQLVESGGGLVQPGGSLRLSCAASGFTFSSYSMNWVRQAPGKGLEWVSYISSSSSTIDYADSVKGRFTISRDNAKNSLYLQMNSLRDEDTAVYYCARESGWYLFDYWGQGTLVTVSSASTKGPSVFPLAPSSKSTSGGTAALGCLVKDYFPEPVTVSWNSGALTSGVHTFPAVLQSSGLYSLSSVVTVPSSSLGTQTYICNVNHKPSNTKVDKKV[sequence of human IgG1 Fc with changes omitted]GGGGTEVQLLESGGGEVQPGGSLRLSCAASGFTFSDAFMYWVRQAPGKEREWVSSISNRGLKTAYAESVKGRFTISRDNAKNTLYLQMSSLRAEDTAVYYCVEGDWNLGPRGQGTLVTVKP
light: [sequence of about 200 residues omitted]
% donor responder (>2), SEB assay, IL-2 release [3]: 100% | Mean, normalized IL-2 release, SEB assay [3]: 22.6

Next, values leading:

binding result [2]: binds | % donor responder (>2), SEB assay, IL-2 release [3]: 50% | Mean, normalized IL-2 release, SEB assay [3]: 1.89 | binding result [4]: no binding (tested: 200 nM)
B2: Tetra-hz1D10v1 (Fc fusion)
chain: EVQLLESGGGEVQPGGSLRLSCAASGFTFSDAFMYWVRQAPGKGLEWVSSISNRGLKTAYAESVKGRFTISRDNAKNTLYLQMSSLRAEDTAVYYCSRDVDGDFRGQGTLVTVKPGGSGGSEVQLLESGGGEVQPGGSLRLSCAASGFTFSDAFMYWVRQAPGKGLEWVSSISNRGLKTAYAESVKGRFTISRDNAKNTLYLQMSSLRAEDTAVYYCSRDVDGDFRGQGTLVTVKPGGGGT[sequence of human IgG1 Fc with changes omitted]
notes: dAb-Fc (IgG1 Fc LALA) fusion; also called 1D10v1 dAb

response units [5]: 450 RU | binding result [6]: no binding (tested: 200 nM)
B3: Fc-2H6 Fab/2H6 Fab (other)
heavy: [sequence of human IgG1 Fc with changes omitted]GGGGTEVQLVESGGGLVQPGGSLRLSCAVSGYSITSDYAWNWIRQAPGKGLEWMGYISYSGSTAYNPSLKSRITISRDTSKNTFYLQMNSLRAEDTAVYYCARGPYNYLAYWGQGTLVTVSSASTKGPSVFPLAPSSKSTSGGTAALGCLVKDYFPEPVTVSWNSGALTSGVHTFPAVLQSSGLYSLSSVVTVPSSSLGTQTYICNVNHKPSNTKVDKKVEPKSC
light: DIQLTQSPSSLSASVGDRVTITCRASESVDNYGISFMNWFQQKPGKAPKLLIYAASNQKSGVPSRFSGSGSGTDFTLTISSLQPEDFATYFCQQSKEVPLTFGQGTKVEIKRTVAAPSVFIFPPSDEQLKSGTASVVCLLNNFYPREAKVQWKVDNALQSGNSQESVTEQDSKDSTYSLSSTLTLSKADYEKHKVYACEVTHQGLSSPVTKSFNRGEC
notes: N-terminal Fabs removed by digestion; also called purified digestion product of Tetra-18

binding result [10]: binds
B6: humanized 2H6 scFv2-Fc (2H6 M108L scFv-Fc) (Fc fusion)
scFv-Fc: B5 scFv-Fc with M112L
notes: also called 2H6 scFv M108L
